According to publication PMC9911399, “Two distinct binding modes provide the RNA-binding protein RbFox with extraordinary sequence specificity”:
Positions count from the first letter of the chain named. The list shows a part of the results.

B1: AGCGAAG (DNA:RNA)
RNA: GGGAGACCGGAAUUCAGAUUGUCCAGCGAAGUUAAAUCCCGUCGUAGCCACCA
DNA 1: CAATCTGAATTCCGGTCTCCC
DNA 2: TGGTGGCTACGACGGGATT
B2: CACAACA (DNA:RNA)
RNA: B1 RNA with A25C, G26A, G28A, A30C, G31A
DNA 1: CAATCTGAATTCCGGTCTCCC
DNA 2: TGGTGGCTACGACGGGATT
B3: UGAACGU (DNA:RNA)
RNA: B1 RNA with A25U, C27A, G28A, A29C, A30G, G31U
DNA 1: CAATCTGAATTCCGGTCTCCC
DNA 2: TGGTGGCTACGACGGGATT
B4: UGCACCA (DNA:RNA)
RNA: B1 RNA with A25U, G28A, A29C, A30C, G31A
DNA 1: CAATCTGAATTCCGGTCTCCC
DNA 2: TGGTGGCTACGACGGGATT
B5: CAUGAAU (DNA:RNA)
RNA: B1 RNA with A25C, G26A, C27U, G31U
DNA 1: CAATCTGAATTCCGGTCTCCC
DNA 2: TGGTGGCTACGACGGGATT
B6: UCCUUCU (DNA:RNA)
RNA: B1 RNA with A25U, G26C, G28U, A29U, A30C, G31U
DNA 1: CAATCTGAATTCCGGTCTCCC
DNA 2: TGGTGGCTACGACGGGATT
B7: UCUAUUG (DNA:RNA)
RNA: B1 RNA with A25U, G26C, C27U, G28A, A29U, A30U
DNA 1: CAATCTGAATTCCGGTCTCCC
DNA 2: TGGTGGCTACGACGGGATT
B8: GUCUCUG (DNA:RNA)
RNA: B1 RNA with A25G, G26U, G28U, A29C, A30U
DNA 1: CAATCTGAATTCCGGTCTCCC
DNA 2: TGGTGGCTACGACGGGATT
B9: CGAUUCC (DNA:RNA)
RNA: B1 RNA with A25C, C27A, G28U, A29U, A30C, G31C
DNA 1: CAATCTGAATTCCGGTCTCCC
DNA 2: TGGTGGCTACGACGGGATT
B10: UCCGGCU (DNA:RNA)
RNA: B1 RNA with A25U, G26C, A29G, A30C, G31U
DNA 1: CAATCTGAATTCCGGTCTCCC
DNA 2: TGGTGGCTACGACGGGATT
B11: GGUGAGU (DNA:RNA)
RNA: B1 RNA with A25G, C27U, A30G, G31U
DNA 1: CAATCTGAATTCCGGTCTCCC
DNA 2: TGGTGGCTACGACGGGATT
B12: AUCUCAC (DNA:RNA)
RNA: B1 RNA with G26U, G28U, A29C, G31C
DNA 1: CAATCTGAATTCCGGTCTCCC
DNA 2: TGGTGGCTACGACGGGATT
B13: GCUCUAC (DNA:RNA)
RNA: B1 RNA with A25G, G26C, C27U, G28C, A29U, G31C
DNA 1: CAATCTGAATTCCGGTCTCCC
DNA 2: TGGTGGCTACGACGGGATT
B14: UGAGGGG (DNA:RNA)
RNA: B1 RNA with A25U, C27A, A29G, A30G
DNA 1: CAATCTGAATTCCGGTCTCCC
DNA 2: TGGTGGCTACGACGGGATT
B15: UUGCGGC (DNA:RNA)
RNA: GGGAGACCGGAAUUCAGAUUGUCCUUGCGGCUUAAAUCCCGUCGUAGCCACCA
DNA 1: CAATCTGAATTCCGGTCTCCC
DNA 2: TGGTGGCTACGACGGGATT
B16: GAGGGAA (DNA:RNA)
RNA: B1 RNA with A25G, G26A, C27G, A29G, G31A
DNA 1: CAATCTGAATTCCGGTCTCCC
DNA 2: TGGTGGCTACGACGGGATT
B17: CAAGUGU (DNA:RNA)
RNA: B1 RNA with A25C, G26A, C27A, A29U, A30G, G31U
DNA 1: CAATCTGAATTCCGGTCTCCC
DNA 2: TGGTGGCTACGACGGGATT
B18: UUUAGCC (DNA:RNA)
RNA: B15 RNA with G27U, C28A, G30C
DNA 1: CAATCTGAATTCCGGTCTCCC
DNA 2: TGGTGGCTACGACGGGATT
B19: GGGGCGG (DNA:RNA)
RNA: B1 RNA with A25G, C27G, A29C, A30G
DNA 1: CAATCTGAATTCCGGTCTCCC
DNA 2: TGGTGGCTACGACGGGATT
B20: UAGUACG (DNA:RNA)
RNA: B1 RNA with A25U, G26A, C27G, G28U, A30C
DNA 1: CAATCTGAATTCCGGTCTCCC
DNA 2: TGGTGGCTACGACGGGATT

Molecular target: T1, RBFOX1 RRM RbFoxmut (Fox-RRM*) (Homo sapiens, UniProt Q9NWB1 109-208, R118D;E147R;N151S;E152T)
T1 sequence: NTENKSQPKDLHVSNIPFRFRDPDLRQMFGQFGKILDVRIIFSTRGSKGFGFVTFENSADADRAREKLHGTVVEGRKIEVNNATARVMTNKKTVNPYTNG
Assay: EMSA; HiTS-Eq, 1 nM pool, 10 min; buffer printed only for the single-RNA assays: 10 mM Tris pH 7.5, 150 mM NaCl, 3.4 mM EDTA, 0.001% NP-40, 30 C
Conditions: tags: His6 N-terminal (pET28a); label: 5' 32P
Summary of the method: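 Purified wild-type or mutant RbFox RRM at increasing concentrations was equilibrated with 1 nM of 5′-radiolabelled RNA carrying 7 randomized nucleotides for 10 min in 50 µL. Unbound RNA was separated by 8% native PAGE and sequenced. Relative association constants came from read-count changes of each RNA species compared with the control reaction, normalised to the cognate motif.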

Binder | binding signal
B1 | 0.108 KA relative to UGCAUGU
B2 | 0.103 KA relative to UGCAUGU
B3 | 0.242 KA relative to UGCAUGU
B4 | 0.158 KA relative to UGCAUGU
B5 | 0.114 KA relative to UGCAUGU
B6 | 0.0598 KA relative to UGCAUGU
B7 | 0.125 KA relative to UGCAUGU
B8 | 0.124 KA relative to UGCAUGU
B9 | 0.0745 KA relative to UGCAUGU
B10 | 0.0755 KA relative to UGCAUGU
B11 | 0.101 KA relative to UGCAUGU
B12 | 0.113 KA relative to UGCAUGU
B13 | 0.0785 KA relative to UGCAUGU
B14 | 0.0497 KA relative to UGCAUGU
B15 | 0.0877 KA relative to UGCAUGU
B16 | 0.11 KA relative to UGCAUGU
B17 | 0.128 KA relative to UGCAUGU
B18 | 0.128 KA relative to UGCAUGU
B19 | 0.104 KA relative to UGCAUGU
B20 | 0.122 KA relative to UGCAUGU
